In the supplement of paper PMC12645437, “Orthogonal IMiD-Degron Pairs Induce Selective Protein Degradation in Cells” (ACS Chemical Biology, 2025):
The list shows a part of the results.

What follows are sequences tested against no compound (DMSO) (assay: log2 fold change of degron read counts, EGFP-low vs EGFP+ sorted cells; higher = lower degron-EGFP level without compound (poor expression or instability)). Conditions: compound: DMSO control; 18 h.
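Note: jurkat cells carrying a lentiviral library of mutant zinc finger degrons fused to EGFP plus mCherry, mCherry+ cells FACS sorted, degron abundance counted by next-generation sequencing.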

Row | Sequence | log2 fold change of degron read counts
1 | FMCNQCGARFTQKGNLLRHIKL | 0.567
2 | FSCNQCGHRFTQKGNLLRHIKL | -0.0277
3 | FVCEICGHDFTQKGNLLRHIKL | -1.71
4 | FHCEICGALFTQKGNLLRHIKL | -1.44
5 | FFCNQCGHHFTQKGNLLRHIKL | 0.643
6 | FMCDVCGACFTQKGNLLRHIKL | -1.96
7 | FKCPICGAYFTQKGNLLRHIKL | 0.188
8 | FMCEQCGASFTQKGNLLRHIKL | -1.03
9 | FTCDICGALFTQKGNLLRHIKL | -1.26
10 | LWCNQCGFFCTQKGNLLRHIKL | 2.93
11 | FLCSVCGHQFTQKGNLLRHIKL | -0.882
12 | FSCSVCGHQFTQKGNLLRHIKL | -0.64
13 | FACNICGAYFTQKGNLLRHIKL | 0.461
14 | FNCNQCGHNFTQKGNLLRHIKL | 0.486
15 | FICPVCGAMFTQKGNLLRHIKL | 0.449
16 | FSCDQCGACFTQKGNLLRHIKL | -1.96
17 | FYCEQCGAMFTQKGNLLRHIKL | -1.25
18 | FVCEICGHKFTQKGNLLRHIKL | -1.34
19 | LMCNQCGFMCTQKGNLLRHIKL | 0.815
20 | LQCEICGFRCTQKGNLLRHIKL | -0.585
21 | FVCPICGHCFTQKGNLLRHIKL | 0.125
22 | FECNQCGAMFTQKGNLLRHIKL | -0.0642
23 | FRCDICGAKFTQKGNLLRHIKL | -1.06
24 | LKCNQCGFTCTQKGNLLRHIKL | -0.426
25 | FVCDICGAVFTQKGNLLRHIKL | 0.00773

Row | Sequence | log2 fold change of degron read counts
26 | FYCEVCGAWFTQKGNLLRHIKL | -0.0906
27 | FMCPICGADFTQKGNLLRHIKL | -0.745
28 | FWCPICGRLFTQKGNLLRHIKL | 0.524
29 | FTCEICGHTFTQKGNLLRHIKL | -2.64
30 | FWCNICGAYFTQKGNLLRHIKL | 1.61
31 | FECNVCGAFFTQKGNLLRHIKL | -1.25
32 | FSCPQCGAAFTQKGNLLRHIKL | -0.685
33 | FTCDQCGAHFTQKGNLLRHIKL | -2.18
34 | FKCNQCGRRFTQKGNLLRHIKL | -0.826
35 | FHCEQCGALFTQKGNLLRHIKL | -1.26
36 | FKCEQCGALFTQKGNLLRHIKL | -1.5
37 | FHCPICGRVFTQKGNLLRHIKL | -0.993
38 | FFCNQCGAIFTQKGNLLRHIKL | 1.23
39 | FKCEICGRHFTQKGNLLRHIKL | -1.17
40 | FRCNQCGAHFTQKGNLLRHIKL | -0.239
41 | FLCEVCGAMFTQKGNLLRHIKL | -1.2
42 | LFCNQCGFDCTQKGNLLRHIKL | 0.274
43 | LCCPICGFDCTQKGNLLRHIKL | 0.917
44 | FGCNQCGRSFTQKGNLLRHIKL | -0.0785
45 | FKCEICGRYFTQKGNLLRHIKL | -0.406
46 | FQCPICGAAFTQKGNLLRHIKL | -0.145
47 | FRCEQCGARFTQKGNLLRHIKL | -0.952
48 | FNCPICGHQFTQKGNLLRHIKL | -0.0114
49 | FICNQCGADFTQKGNLLRHIKL | -1.61
50 | FCCNQCGHEFTQKGNLLRHIKL | -1.21
